# Source: the supplement of paper PMC6206098
# ± gives the uncertainty stated by the source. Shown are siRNA guide strands that differ only in the seed, positions 2 to 7.
# How the values were obtained:
# 3LL = assay: cell viability relative to siNT1 control; higher = less toxic; settings: concentration: 10 nM; 96 h; Mus musculus;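 note: Luminescence-based viability of cells reverse transfected in 384-well plates with lipid-complexed siRNAs built on a non-toxic 19mer backbone whose passenger strand carries 2′-O-methyl groups at positions 1 and 2, triplicates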
# Procedure: (§1)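 Arrayed screen of 4096 siRNA duplexes, each carrying one of all possible 6mer seeds at guide-strand positions 2-7 in a fixed neutral 19mer scaffold (constant flanks: U at position 1, then ACAUGUAAACCA, plus a 3' AA overhang). The passenger strand is 2'-O-methylated at positions 1-2 so only the guide strand loads into RISC. Duplexes were reverse-transfected at 10 nM with RNAiMAX in triplicate in 384-well plates; viability was read by CellTiter-Glo ATP content 96 h after transfection. Values are % viability normalised to lipid-only wells (HeyA8, H460, M565) or to siNT1 (3LL).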
# M565 = assay: cell viability relative to lipid-only control; HeyA8 human ovarian and H460 human lung cancer; M565 mouse liver and 3LL mouse lung cancer; siNT1 is a non-toxic control siRNA; higher = less toxic; settings: concentration: 10 nM; 96 h; Mus musculus
# Procedure: as §1
# HeyA8 = assay: as above; settings: concentration: 10 nM; 96 h; Homo sapiens
# Procedure: as §1
# H460 = assay: as above; settings: concentration: 10 nM; 96 h; Homo sapiens
# Procedure: as §1
# 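Throughout, for cell viability relative to lipid-only control: reverse lipid transfection in 384-well plates, in triplicate, of duplexes on a non-toxic 19mer backbone with passenger strand 2′-O-methylated at positions 1 and 2, luminescence viability read-out.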
Sequence,cell viability (3LL),cell viability (M565),cell viability (HeyA8),cell viability (H460)
UCCAGGAACAUGUAAACCAAA,92.9 ± 24%,33.4 ± 6%,85.1 ± 12%,63.4 ± 8.6%
UUCUGCGACAUGUAAACCAAA,49 ± 3.7%,56.5 ± 2.3%,88.4 ± 3.7%,62.6 ± 6.1%
UAAGAUUACAUGUAAACCAAA,91.6 ± 15%,63.5 ± 6.5%,78.2 ± 19%,71.8 ± 8.4%
UAUCGUCACAUGUAAACCAAA,62.9 ± 8%,50.7 ± 22%,93.6 ± 6.5%,95.7 ± 14%
UCUGUCAACAUGUAAACCAAA,94.9 ± 17%,59.5 ± 13%,82.8 ± 2.1%,58.7 ± 4.4%
UUCGACAACAUGUAAACCAAA,106 ± 9.3%,99.6 ± 16%,91.9 ± 11%,63.1 ± 8%
UGUCGUCACAUGUAAACCAAA,27 ± 8.8%,17.2 ± 8%,29.1 ± 5%,53 ± 14%
UAGAUUCACAUGUAAACCAAA,82.6 ± 8.9%,61.1 ± 12%,46.3 ± 2.6%,67.3 ± 11%
UUGGUGCACAUGUAAACCAAA,17.5 ± 2%,20.2 ± 2%,68.7 ± 8%,49.7 ± 1.4%
UCUGGUCACAUGUAAACCAAA,99 ± 16%,61.7 ± 10%,65.2 ± 3.8%,31.9 ± 4.2%
UGAUCUGACAUGUAAACCAAA,57.8 ± 14%,48.7 ± 2.4%,57.4 ± 3.8%,51.3 ± 1.6%
UCCGAGAACAUGUAAACCAAA,108 ± 24%,75.7 ± 17%,79 ± 5.5%,55.2 ± 2.1%
UAAACUAACAUGUAAACCAAA,112 ± 16%,102 ± 8%,101 ± 7.8%,85.8 ± 14%
UGAGAUUACAUGUAAACCAAA,62.6 ± 13%,17.7 ± 4.4%,70.3 ± 4.6%,84.6 ± 13%
UUGAAUAACAUGUAAACCAAA,95.5 ± 5.7%,96.7 ± 11%,93.4 ± 2.5%,78.5 ± 3%
UUUUGCGACAUGUAAACCAAA,96 ± 12%,102 ± 9.1%,95 ± 2%,77.6 ± 8.9%
UUCAAGCACAUGUAAACCAAA,34.3 ± 3.9%,8.84 ± 1.6%,60.8 ± 6.9%,65.3 ± 5.8%
UCUGUCUACAUGUAAACCAAA,95.8 ± 14%,43 ± 17%,71.1 ± 3%,52.3 ± 4%
UGUUUGAACAUGUAAACCAAA,78.5 ± 5.8%,95 ± 9.4%,64 ± 9.9%,60.6 ± 7%

Sequence,cell viability (3LL),cell viability (M565),cell viability (HeyA8),cell viability (H460)
UAGAGCAACAUGUAAACCAAA,44.5 ± 5.7%,63.5 ± 6.2%,93.7 ± 13%,70.4 ± 3.5%
UGUUUUGACAUGUAAACCAAA,72.3 ± 9.9%,90.2 ± 15%,78.9 ± 14%,66.6 ± 5.2%
UCAUCACACAUGUAAACCAAA,73.8 ± 10%,71.6 ± 5.7%,58.3 ± 1.1%,34 ± 3.8%
UCGUGAUACAUGUAAACCAAA,74.9 ± 16%,45.8 ± 3.7%,37.5 ± 2%,68.1 ± 3.2%
UACUCAAACAUGUAAACCAAA,93.6 ± 9.3%,31.1 ± 8.6%,76.5 ± 4.1%,81.2 ± 9.5%
UUAGAAGACAUGUAAACCAAA,92.2 ± 8%,94.5 ± 14%,95.7 ± 9.6%,107 ± 10%
UGCGUCUACAUGUAAACCAAA,54.2 ± 5.1%,16 ± 4.6%,50.2 ± 2.8%,55.9 ± 2.8%
UCUAGUUACAUGUAAACCAAA,90.8 ± 18%,57.9 ± 6.8%,81.3 ± 5.1%,57.5 ± 5.8%
UCUUUAUACAUGUAAACCAAA,93 ± 12%,62.8 ± 11%,81.9 ± 5.9%,72.3 ± 3.4%
UACGCGCACAUGUAAACCAAA,58.2 ± 9.7%,35.3 ± 9.8%,95.8 ± 2.9%,69.5 ± 8.6%
UCUGGAUACAUGUAAACCAAA,90.2 ± 11%,17.1 ± 1.4%,52.6 ± 1.1%,61.2 ± 3.7%
UUCGUCUACAUGUAAACCAAA,68.4 ± 16%,53 ± 7.4%,39.4 ± 4.1%,51.1 ± 4.9%
UUACCCGACAUGUAAACCAAA,68.4 ± 3.9%,50.9 ± 8.6%,74.1 ± 3.2%,71.2 ± 6.2%
UGUCCACACAUGUAAACCAAA,52.1 ± 3.7%,22.3 ± 2.9%,7.3 ± 0.36%,42.9 ± 4.8%
UUUCCAGACAUGUAAACCAAA,90 ± 3.6%,81.9 ± 12%,90.5 ± 4.8%,66.4 ± 10%
UCAGUCUACAUGUAAACCAAA,61.8 ± 5.9%,20.7 ± 2.5%,58.1 ± 5.8%,46.6 ± 6.4%
UUCUAAAACAUGUAAACCAAA,98.5 ± 9.1%,89.9 ± 13%,103 ± 9.2%,66.4 ± 8.4%
UGCACAUACAUGUAAACCAAA,83.2 ± 15%,45.6 ± 4.9%,60.7 ± 12%,58.2 ± 10%
UCGACUAACAUGUAAACCAAA,90 ± 14%,69.2 ± 6.4%,84.3 ± 7.3%,93.1 ± 8.4%

Sequence,cell viability (3LL),cell viability (M565),cell viability (HeyA8),cell viability (H460)
UCACGCCACAUGUAAACCAAA,81.7 ± 21%,29.4 ± 6.3%,65.3 ± 3.8%,20.2 ± 1.6%
UUUUCGCACAUGUAAACCAAA,62.3 ± 9.1%,82.4 ± 14%,87.7 ± 2.4%,81.2 ± 12%
UUGACGGACAUGUAAACCAAA,50.6 ± 3.4%,43.1 ± 5.5%,78 ± 3.5%,47.8 ± 5.4%
UAUGGACACAUGUAAACCAAA,32.8 ± 2.8%,22.1 ± 3.7%,81.2 ± 7%,72 ± 11%
UCCGUUCACAUGUAAACCAAA,54.2 ± 19%,16.7 ± 3%,13.1 ± 1.4%,36.1 ± 7.2%
UCCGUCCACAUGUAAACCAAA,24.3 ± 4.5%,14.7 ± 0.19%,13.1 ± 1.7%,23.2 ± 3.1%
UCGUGCAACAUGUAAACCAAA,88.1 ± 8.2%,66.5 ± 6.8%,76.7 ± 6.9%,92.1 ± 1.5%
UCAAGACACAUGUAAACCAAA,27.1 ± 2.6%,15.3 ± 2.7%,49 ± 4.2%,59.5 ± 2.2%
UGCAGUUACAUGUAAACCAAA,61.1 ± 16%,41.3 ± 5.3%,64.6 ± 7%,60.6 ± 3.4%
UAGGUGCACAUGUAAACCAAA,29.2 ± 4.1%,6.26 ± 2.1%,6.83 ± 0.3%,21.7 ± 6%
UAAAUAAACAUGUAAACCAAA,113 ± 16%,88.7 ± 21%,95.1 ± 5.2%,68 ± 4.4%
UGCGUGGACAUGUAAACCAAA,64.9 ± 6.5%,29.1 ± 2.9%,50 ± 1.4%,49.2 ± 4.6%
UAAUACGACAUGUAAACCAAA,124 ± 13%,109 ± 21%,97.4 ± 4.9%,93 ± 6.5%
UACGAGUACAUGUAAACCAAA,74.4 ± 6.6%,76.2 ± 12%,71.4 ± 2.2%,71.9 ± 12%
UACCGGUACAUGUAAACCAAA,66 ± 4.5%,47 ± 6.8%,68.9 ± 6.1%,83 ± 13%
UUGCCGUACAUGUAAACCAAA,13.1 ± 0.45%,21.8 ± 6%,96.6 ± 9.8%,73.8 ± 8%
UCAAUUGACAUGUAAACCAAA,100 ± 24%,79.6 ± 12%,91.8 ± 7.3%,76.3 ± 15%
UGCCAAAACAUGUAAACCAAA,93.3 ± 8.4%,55.4 ± 9.1%,90.4 ± 5.9%,68.1 ± 10%
UGACUCGACAUGUAAACCAAA,19 ± 3.1%,20.4 ± 2.9%,77.9 ± 6.5%,54 ± 11%
